According to PubChem BioAssay (NCI):
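These data come from cells grown in 96-well plates and exposed to compound for 48 hours at five concentrations. The concentration for 50% growth inhibition is given as GI50. Definition used: TGI = concentration required for complete inhibition of growth.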

System: NCI-H322M lung
Assay: DTP human tumour cell line panel, 48 h

COc1cc2nc(-c3ccc(C(F)(F)F)cc3)cc(OCCCNCC3CCCO3)c2cc1OC (configuration not stated)
GI50: 10.6 µM
TGI: 22.4 µM
